Measurements taken from the supplement of paper PMC10126150.
Values marked as one replicate rest on one cluster of the flow cell; about a third of the high ones do not repeat.

Test system: ATP
Assay: switch fluorescence ratio, 500 uM ATP over buffer (Cy3 cluster intensity, sum of 5 cycles each) (fold (ratio)); higher = stronger signal-on switching upon ATP binding; sequences stand for … in TCGTCGGCAGCGTCAGATGTGTATAAGAGACAGTTTTTTTTTTTTTTTTTTTTTTTTT…TC
Conditions: aptamer strand: ATP DNA aptamer (quencher-CACCTGGGGGAGTATTGCGGAGGAAGG + anchor), 100 nM annealed; ATP concentration: 500 uM; one replicate
Summary of the method: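 After annealing to 100 nM quencher-labelled ATP aptamer, Cy3-labelled switching-strand clusters on a modified Illumina MiSeq flow-cell were imaged in selection buffer. A second image followed after 15 min with 500 uM ATP at 22 °C, and five such buffer/ATP cycles were done, each separated by NaOH stripping and re-annealing. The fluorescence ratio, averaged per switch-domain sequence, is summed target-cycle over summed buffer-cycle Cy3 intensity per cluster, with clusters outside 100-1000 RFU excluded.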
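Note: ATP exposure 15 min at 22 °C before imaging.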

Sequence | switch fluorescence ratio
CCTCTCGGGA | 1.37
AGGCTCTTTC | 1
TGATCCTCAC | 1.08
AGTAATTCTT | 0.977
GCTAGTTGCT | 0.98
CCCGAAATTT | 0.991
CGAGATACCA | 1.15
ACTATTTCGT | 0.981
CAACTTTTCG | 0.986
AATAGGCGGG | 1.01
GGTTGTTTAT | 0.979
TCAGTGGAAA | 1
CGTCACCGAA | 1.04
AATGGTGCC | 0.985
ATGGGATTAT | 0.994
CAGCGGGAAA | 1.06
CGACAGCTTT | 1.38
GAACGTGAGC | 1.08
ACAGTGGACG | 1.01
CTCGAATTG | 0.934
GTTAGCAAAA | 0.968
TCCGTTCCTA | 1.07
TTTAAATGTC | 0.946

Sequence | switch fluorescence ratio
CTTTAAAATT | 1.03
GAGTCACTAG | 1.02
CGTACTTCCC | 1.58
ACGGGACCCG | 0.968
TTTGCGGGGA | 1.04
CCATTCGTAG | 1
ACTTCTTGAA | 1.01
ATTCGACATA | 1.03
CTGTTTAGAT | 0.997
ACCCAGGTTT | 1.59
ACCTTTAGTA | 0.975
TGCGAGAGGC | 0.986
CGCACAAGGG | 1.13
TCACATATAA | 1.09
TGATTTTGCG | 1.04
GGACTTCTTC | 1.16
GAAGTGGAAG | 0.984
TTGGAGTGTA | 1.04
CTCCCTGACG | 1.09
CTTCTCGTTT | 1.01
TCCCACCTCC | 1.39
TTGGAATCG | 0.98
TTCGTGTGAG | 0.961

Sequence | switch fluorescence ratio
AGGCCGACAG | 1.02
CTAGTAAATT | 1.01
GGGGAACCGG | 1.04
AATTGCGAGC | 1.01
CTAAGCCAAA | 0.966
GAGAAATGCT | 1.13
GAGCGAAGCC | 0.964
TGAGTTGAGC | 0.926
AACGTTTATA | 1.03
CGTTTTAATA | 1.03
GAGAACTACA | 1.02
CCCGTTGCAG | 0.964
CATGCTATT | 1.03
AATAAAGAAG | 0.983
CGTAGATTGG | 0.975
AACGTCACCA | 1.54
AGGCCGACCT | 0.946
TATAGGCGGG | 1
TAGTGGTTGG | 0.968
TCAGGCGTCT | 1.03
TAATTTGCAT | 0.992
CAATAGTGGT | 0.997
GATTCCCCCT | 1.1

Sequence | switch fluorescence ratio
GGCCATAGAC | 1.05
AGGAAAGGAG | 0.995
AGGTGAGGAC | 1.01
CGCCAATAAA | 1.22
CCCGATAGCA | 1.33
AATCGCTGTA | 1.04
AATTACATT | 0.978
GCTGTTATC | 1.02
GGTGGTACAT | 1
TATAGCTCGA | 1.04
CGAGCATCGG | 1.01
TGCAGCACGA | 1.32
ATATTGTGGT | 1.02
AATGGCCGAT | 1.02
TCCCCGGTCG | 1.18
GCTAAAACGT | 1
GAGCTAGCAT | 0.951
TGACGCTAGG | 1.03
ATTTGGAACG | 1.02
GACGTGTAAG | 0.994
TAGCCGTCCC | 1.15
TGTTGTCGTT | 1.02
CTGCTTAGCA | 1.02

Sequence | switch fluorescence ratio
CATGCCGATC | 1.01
GGGAGGCCCT | 1.07
CTATGAGCTG | 0.989
CTAGCTCATA | 1.01
ATTTAAATCG | 1.03
GGGCGGAGCA | 1.03
GGCCCATGTG | 1.93
CTCTTGCATT | 1.45
TAGGATGTGC | 1.03
CGTGTCTGTG | 0.983
TGGAGGATTT | 1
TGGCTCGCCA | 1.22
CGGGTAATGA | 0.989
CCTTTCGTCG | 1.29
TCTTGAGTCC | 0.985
AAGCCTTGCT | 0.977
CCCAGCGTAA | 1.74
GCACGGCACA | 1.22
AGCCTCTCGG | 0.964
CAGTTCCCGT | 1.01
TTCGATGTCT | 1.01
TTGTGTGACC | 0.972
CATCAGGATA | 1.04

Sequence | switch fluorescence ratio
CACCACCGAG | 1.11
ATACTTGGCG | 1.01
CCACAGAGGC | 1.08
GCGGGAGAGC | 1.12
ATTAACCGTT | 1.02
AGCACGTTGG | 1.02
TTCGGTGTGC | 1
AGTATATCCG | 1.02
AAAAACGAGC | 1.11
GCCTGTCCTT | 0.994
GGAACGACGT | 1.04
TTGCCAGTAA | 0.969
CACGCTGTCC | 1.28
TTGGGTCTTG | 0.977
CCCCTAATAG | 1.88
GTGAGTCTTC | 0.933
ATCTACCCAG | 1.08
ACAGATGCAT | 1.05
ACCACCCGCT | 1.2
GGATTAACTG | 1.08
CGATCTAGG | 0.998
TGTTGGAATT | 1.02
GCTTCTAGTT | 0.99

Sequence | switch fluorescence ratio
CTAGTAGAAA | 1.02
TCTTTGGTTC | 1.04
TGCTCTTGGG | 1
GCCCATCTAA | 0.963
GGTACAAACT | 1.06
TACAATGCCA | 0.975
TCCAGTCCGG | 0.996
AATCTGTG | 1.02
CAGTTCAGCC | 0.997
TTCCCTTAGT | 1.05
GGCTACTGAA | 1.06
ATTAGGGAGG | 1.03
GGATGCGAGG | 1.03
GAGGGGTCTG | 0.952
TCAGGAGTT | 1.01
GGGCGCGCGT | 0.961
CATGAATCCC | 1.09
CCTCGGTGAC | 3.38
GATACCAGCA | 1.07
